In all, about 320,000 compounds went through this assay and about 200 (0.062%) were called active. The inconclusive results got no clear call from the source; some entries with a clear call stand among them for comparison. The call rests on the fitted dose curve; in most records, active means well fitted activation curve with a large enough effect; inconclusive means small, poorly fitted or top-dose-only effect; inactive means no such curve, though single readings can be large or run the other way. Potencies of inconclusive entries are left out as doubtful fits.
Assay: qHTS assay for re-activators of p53 using a Luc reporter; further: nearly all actives have a fitted effect of over 45% in size
Conditions: H1299 p53-A138V BP100-luciferase reporter, luminescence, 24 h; series mostly up to 92.2 µM
Outline: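 H1299 (p53-null), stable ts p53-A138V + BP100-Luc; 1000 cells/well, Opti-MEM/10% FBS; cpd 4 pt, 1:5; 24 h, 37 deg C, 5% CO2; detection reagent 10 min RT; luminescence.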
With Cc1ccc(Nc2nc(N)c([N+](=O)[O-])c(NCCO)n2)cc1 the Potency was inconclusive [activator, single point]. For CCOCCOc1cccc(C(=O)NC(c2ccccc2)c2ccccc2)c1, the Potency was “inactive”. For Cc1scc(-c2n[nH]c(=S)n2Cc2ccccc2)c1C, the Potency was “inactive”. With Cc1ccc2oc(=O)c3cc(C(=O)NCCCN4C(C)CCCC4C)sc3c2c1 (centres undefined) the Potency was inconclusive [activator, partial curve, poor fit]. In the case of O=C(Nc1cccc([N+](=O)[O-])c1)c1ccc(-c2ccccc2)cc1, the Potency is reported as “inactive”. In the case of O=c1c2ccccc2nc2n1CCCCN2, the Potency is reported as “inactive”. In the case of O=C(Nc1ccccc1Br)C(=O)N1CCCC1, the Potency is reported as inconclusive [activator, single point]. With Cc1ccc(S(=O)(=O)c2ccc([N+](=O)[O-])cn2)cc1 the Potency was “inactive”. With COc1cccc(-c2cc(C(=O)N3C(C)CCCC3C)no2)c1 (centres undefined) the Potency was inconclusive [activator, full curve, poor fit]. In the case of CCN(C(=O)c1ccc(Cl)cc1[N+](=O)[O-])c1ccccc1C, the Potency is reported as “inactive”. For COc1cc(NS(=O)(=O)c2ccc(NC(=O)NC3CCCCC3)cc2)nc(OC)n1, the Potency was inconclusive [activator, single point]. With CC(=O)Nc1cccc(N/C=C(\C=O)c2nc3ccccc3o2)c1 the Potency was “inactive”. In the case of CC(C)(C)NC(=O)C(c1ccncc1)N(CC1CCCO1)C(=O)Cn1nnc(-c2ccc(F)cc2)n1 (centres undefined), the Potency is reported as “inactive”. For Cc1ccccc1COC(=O)c1nn(-c2ccccc2)nc1N, the Potency was inconclusive [activator, single point]. For CCN(Cc1ccccc1)C(=O)c1cccc(S(=O)(=O)N2CCN(Cc3ccccc3)CC2)c1, the Potency was “inactive”. With N#CC1=C(O)C(c2ccccc2)n2c1nc(=O)c1ccccc12 (centres undefined) the Potency was inconclusive [activator, single point]. In the case of O=C(/C=C/c1ccccc1[N+](=O)[O-])NCCCN1CCCC1=O, the Potency is reported as inconclusive [activator, single point]. In the case of Cc1nc2ccccc2c(=O)n1/N=C/c1ccc(O)cc1O, the Potency is reported as “inactive”. In the case of CC(C(=O)c1ccc(-c2ccccc2)cc1)[n+]1ccccc1 (centres undefined), the Potency is reported as “inactive”. In the case of COC(=O)c1sc(NC(=S)NC(=O)c2ccccc2)nc1C, the Potency is reported as inconclusive [activator, full curve, poor fit]. With CCC1CCCCN1CCCNC(=O)c1ccc2nc(N3CCCCC3)sc2c1 (centres undefined) the Potency was inconclusive [activator, partial curve, poor fit]. With CC[C@H](C)[C@@H]1NC(=O)[C@H]([C@@H](C)CC)NC(=O)[C@@H](CC(C)C)NC(=O)[C@H](Cc2ccccc2)NC(=O)[C@H](Cc2ccccc2)NC(=O)[C@@H]2CCCN2C(=O)[C@@H]2CCCN2C(=O)[C@H](C(C)C)NC(=O)[C@H](CC(C)C)NC1=O the Potency was “inactive”. For COc1ccc(/C=C/C(=O)Nc2cc(=O)n(C)c(=O)n2C)cc1, the Potency was inconclusive [activator, full curve, poor fit]. In the case of CCC(=O)N1CC23C=CC(CC2CC12CCCCC2)O3 (centres undefined), the Potency is reported as “inactive”. For Cc1ccsc1CCNC(=O)C1CCC(=O)N(CCc2cccc(F)c2)C1 (centres undefined), the Potency was inconclusive [activator, partial curve, poor fit]. With Cc1cc(NCCCOC(C)C)n2c(nc3ccccc32)c1C#N the Potency was inconclusive [activator, single point]. In the case of COc1cc2[nH]c3c(=O)n(CCN(C(C)C)C(C)C)cnc3c2cc1OC, the Potency is reported as inconclusive [activator, single point]. For CCC(C)OC(=O)n1ccc(C(=O)Nc2nccs2)n1 (centres undefined), the Potency was inconclusive [activator, partial curve, poor fit]. In the case of c1coc(Cn2c(-c3ccco3)nc3ccccc32)c1, the Potency is reported as inconclusive [activator, partial curve, poor fit]. In the case of COC(=O)N/N=C\c1c(C)nn(-c2ccccc2)c1Cl, the Potency is reported as inconclusive [activator, partial curve, poor fit]. With O=C(COC(=O)c1ccccc1O)Nc1ccc2ccccc2c1 the Potency was inconclusive [activator, single point]. For Cc1cccc(C)c1Nc1nnc(SCc2nc3ccccc3s2)s1, the Potency was inconclusive [activator, full curve, poor fit]. With COC(=O)CN1C(=O)c2cccc3cccc1c23 the Potency was inconclusive [activator, single point]. In the case of Cc1cc(=O)oc2c(C)c(OCC(=O)Nc3cccnc3)ccc12, the Potency is reported as inconclusive [activator, partial curve, poor fit]. With O=Cc1c[nH]c2ccc(OCc3ccccc3)cc12 the Potency was inconclusive [activator, single point]. For Cc1cc(C(=O)CSc2nnnn2C)c(C)n1-c1cccc(F)c1, the Potency was inconclusive [activator, partial curve, poor fit]. With CC(=O)c1cccc(NC(=S)NC(=O)c2cccc(Cl)c2)c1 the Potency was inconclusive [activator, partial curve, poor fit]. In the case of CCNC(=S)NN=C1CCC(C(C)(C)C)CC1 (centres undefined), the Potency is reported as “inactive”. With CCN1CCN(C(=O)CN2C(=O)COc3ccc(C)cc32)CC1 the Potency was inconclusive [activator, single point]. With CC(C)N=C(N)N=C(N)Nc1ccc(Cl)cc1 the Potency was “inactive”. For Cc1ccc(S(=O)(=O)N2Cc3ccccc3CC2C(=O)Nc2ccc3c(c2)OCO3)cc1 (centres undefined), the Potency was inconclusive [activator, partial curve, poor fit]. In the case of COCCn1c(C)cc(C(=O)COC(=O)c2ccc([N+](=O)[O-])o2)c1C, the Potency is reported as inconclusive [activator, single point]. For Cc1cc(NC(=O)CCCC(=O)OCC(F)(F)C(F)F)cc(C)c1C(=O)O, the Potency was “inactive”. With CC(=Nc1cccc(C)c1)c1sc2ccccc2c1O the Potency was inconclusive [activator, partial curve, poor fit]. For Cc1cccc(NC(=O)c2sc3nc(N)c(C#N)cc3c2N)c1, the Potency was inconclusive [activator, full curve, poor fit]. In the case of Brc1cccc(-c2nnc(-c3ccccc3)o2)c1, the Potency is reported as inconclusive [activator, partial curve, poor fit]. With O=C(Nc1ccccc1C(=O)NCCN1CCOCC1)c1cccc([N+](=O)[O-])c1 the Potency was inconclusive [activator, partial curve, poor fit]. For Cc1sc(NC(=O)c2ccco2)c(CN2CCN(Cc3ccccc3)CC2)c1C, the Potency was “inactive”. In the case of CCCn1c(N)c(N(CCOC)C(=O)CSc2cc(C)c3cccc(C)c3n2)c(=O)[nH]c1=O, the Potency is reported as “inactive”. With CCCCNC(=S)N(C)/N=C/c1ccc(F)cc1 the Potency was “inactive”. In the case of C=CCN1C(=O)C(Cc2ccc(OC)cc2)S/C1=N\N=C\c1cccs1 (centres undefined), the Potency is reported as “inactive”. With CCCCc1ccc(NC(=S)NN2CCOCC2)cc1 the Potency was inconclusive [activator, partial curve, poor fit]. With CCOC(=O)c1sc(N(Cc2ccccc2)C(=O)COC(=O)c2ccccc2O)nc1C the Potency was inconclusive [activator, single point]. For Cc1ccc(NC(=O)C2C3/C=C\CCCCC32)cc1 (centres undefined), the Potency was inconclusive [activator, partial curve, poor fit]. In the case of Cc1cccc(-n2ncc3c(NC(C)C)ncnc32)c1, the Potency is reported as “inactive”. In the case of Cc1ccc(-n2c(C(C)C)nc3oc4ccccc4c(=O)c3c2=O)cc1, the Potency is reported as inconclusive [activator, partial curve, poor fit]. In the case of O=C(c1cc2ccccc2oc1=O)N(c1ccccc1)C1C=CS(=O)(=O)C1 (centres undefined), the Potency is reported as inconclusive [activator, partial curve, poor fit]. For COc1ccccc1N(C)S(=O)(=O)c1ccc(C(=O)Nc2ccc3nc(C)sc3c2)cc1, the Potency was “inactive”. With CCOC(=O)C(=CNc1nc(-c2ccccc2)c(C(=O)Nc2ccc(-c3ccccc3)cc2)s1)C(=O)OCC the Potency was “inactive”. With CCOC(=O)c1c(C)oc2ccc(OCC(=O)C(C)(C)C)cc12 the Potency was “inactive”. In the case of CC(C)N(CC(=O)Nc1ccc(Cl)cc1C(F)(F)F)C(=O)CCl, the Potency is reported as “inactive”. In the case of CCC(=O)Nc1ccc(Nc2nc(Cl)nc(Nc3ccc(NC(=O)CC)cc3)n2)cc1, the Potency is reported as inconclusive [activator, single point]. With NC(=O)CSc1nnc(-c2ccc(O)cc2)n1Cc1ccco1 the Potency was “inactive”. In the case of COc1ccccc1/C=C/C(=O)NCCc1ccccn1, the Potency is reported as inconclusive [activator, partial curve, poor fit]. For Cc1ccc(-c2cc(C(=O)N/N=C\c3cnn(C)c3C)c3ccccc3n2)cc1C, the Potency was inconclusive [activator, partial curve, poor fit]. In the case of CC1CC2(CCCCC2)Nc2c1ccc1ccccc21 (centres undefined), the Potency is reported as inconclusive [activator, single point]. With COc1cccc(-c2nnc(SCc3cccnc3)o2)c1 the Potency was inconclusive [activator, partial curve, poor fit]. For COc1cccc2cc(C(=O)Nc3cccc(C)n3)c(=O)oc12, the Potency was inconclusive [activator, partial curve, poor fit]. In the case of Cc1nc(C)c(C(=O)C2=C(O)C(=O)N(CCCn3ccnc3)C2c2ccccc2)s1 (centres undefined), the Potency is reported as inconclusive [activator, single point].
Potency means the concentration at half of the fitted maximal effect; tags describe the fitted curve by direction and shape.
